# Test results from the supplement of paper PMC9588766.
# Where a name gives a salt, the structure may show the parent alone. The full ranking holds about 1,900 compounds; the median of “cell viability of compound + 1 nM pemigatinib relative to pemigatinib-only (DMSO) wells” is about 0.95, and the lowest 2% start at about 0.22. The list shows a part of the results.
# Tested on: PDC-DUC18828
# Experiment: cell viability of compound + 1 nM pemigatinib relative to pemigatinib-only (DMSO) wells (fraction); PDC-DUC18828 is a patient-derived cholangiocarcinoma cell line; higher = less growth inhibition
# Settings: first compound 1 µM; pemigatinib concentration 1 nM; 72 h
# Protocol: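 Selleck Bioactive library screen in the patient-derived FGFR2 fusion-positive ICC cell line PDC-DUC18828 (500 cells/well). Each compound was tested at 1 uM with 1 nM pemigatinib, in triplicate, for 72 h. Viability was read by CellTiter-Glo and normalised to plate DMSO controls. Value is the paper's averaged normalised viability.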
row,Structure (SMILES),cell viability
1,OCc1cc(C(O)CNCCCCCCOCCCCc2ccccc2)ccc1O (stereo not given) [Salmeterol Xinafoate] + CCN1C(=O)N(c2c(F)c(OC)cc(OC)c2F)Cc2cnc3[nH]c(CN4CCOCC4)cc3c21 [pemigatinib],0.943
2,Nc1ncnc2c1c(-c1cnc3[nH]ccc3c1)nn2C1CCCC1 + CCN1C(=O)N(c2c(F)c(OC)cc(OC)c2F)Cc2cnc3[nH]c(CN4CCOCC4)cc3c21 [pemigatinib],0.331
3,Cc1cc(C(O)=C2C(=O)C(=O)N(CCCN3CCOCC3)C2c2ccncc2)ccc1OCc1ccccc1 (stereo not given) + CCN1C(=O)N(c2c(F)c(OC)cc(OC)c2F)Cc2cnc3[nH]c(CN4CCOCC4)cc3c21 [pemigatinib],1
4,COc1cc(Nc2nc3ccccc3nc2NS(=O)(=O)c2ccc(NC(=O)c3ccc(C)c(OC)c3)cc2)cc(OC)c1 + CCN1C(=O)N(c2c(F)c(OC)cc(OC)c2F)Cc2cnc3[nH]c(CN4CCOCC4)cc3c21 [pemigatinib],1.01
5,CCC1=C(C)CN(C(=O)NCCc2ccc(S(=O)(=O)NC(=O)N[C@H]3CC[C@H](C)CC3)cc2)C1=O [Glimepiride] + CCN1C(=O)N(c2c(F)c(OC)cc(OC)c2F)Cc2cnc3[nH]c(CN4CCOCC4)cc3c21 [pemigatinib],1.03
6,CCNC(=O)C#Cc1ccc2c(C(=Nc3ccc(CN(C)C)cc3)c3ccccc3)c(O)[nH]c2c1 + CCN1C(=O)N(c2c(F)c(OC)cc(OC)c2F)Cc2cnc3[nH]c(CN4CCOCC4)cc3c21 [pemigatinib],0.38
7,CCCCOc1cc(C(=O)NCCN(CC)CC)c2ccccc2n1 [Dibucaine HCl] + CCN1C(=O)N(c2c(F)c(OC)cc(OC)c2F)Cc2cnc3[nH]c(CN4CCOCC4)cc3c21 [pemigatinib],0.925
8,CCOC(=O)c1ccc(NC(=O)O[C@H]2[C@H](OC(=O)Nc3ccc4c(c3)OCO4)[C@@H](OC(=O)Nc3ccc4c(c3)OCO4)[C@@H](OC)O[C@@H]2CO)cc1 + CCN1C(=O)N(c2c(F)c(OC)cc(OC)c2F)Cc2cnc3[nH]c(CN4CCOCC4)cc3c21 [pemigatinib],0.916
9,O=C1CCc2cc(OCCCCc3nnnn3C3CCCCC3)ccc2N1 [Cilostazol] + CCN1C(=O)N(c2c(F)c(OC)cc(OC)c2F)Cc2cnc3[nH]c(CN4CCOCC4)cc3c21 [pemigatinib],1.04
10,N#C[C@@H]1C[C@@H]2C[C@@H]2N1C(=O)[C@@H](N)C12CC3CC(CC(O)(C3)C1)C2 [Saxagliptin] + CCN1C(=O)N(c2c(F)c(OC)cc(OC)c2F)Cc2cnc3[nH]c(CN4CCOCC4)cc3c21 [pemigatinib],1.02
